{"source": "the supplement of paper PMC8728848", "assay_in_all_cases": "glycan array binding signal (z-score within array); higher = stronger binding", "conditions_in_all_cases": "glycan notation: IUPAC condensed, linker removed", "key": {"[1]": {"target": "Fuc(a1-2)Gal", "procedure,_shortened": "(§1)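 Negative Z-scores can be read as non-binding. The Z-score is calculated within each array and then averaged across arrays of one protein sequence at different concentrations or buffers and across linkers. Arrays, 3228 in all, were curated from the Consortium for Functional Glycomics database and kept only where the protein sequence was available.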"}, "[2]": {"target": "Fuc(a1-2)Gal(b1-3)GalNAc", "procedure,_shortened": "as §1"}, "[3]": {"target": "Fuc(a1-2)Gal(b1-3)GalNAc(a1-3)[Fuc(a1-2)]Gal(b1-4)Glc", "procedure,_shortened": "as §1"}, "[4]": {"target": "Fuc(a1-2)Gal(b1-3)GalNAc(a1-3)[Fuc(a1-2)]Gal(b1-4)GlcNAc", "procedure,_shortened": "as §1"}, "[5]": {"target": "Fuc(a1-2)Gal(b1-3)GalNAc(b1-3)Gal", "procedure,_shortened": "as §1"}, "[6]": {"target": "Fuc(a1-2)Gal(b1-3)GalNAc(b1-3)Gal(a1-4)Gal(b1-4)Glc", "procedure,_shortened": "as §1"}, "[7]": {"target": "Fuc(a1-2)Gal(b1-3)GalNAc(b1-4)[Neu5Ac(a2-3)]Gal(b1-4)Glc", "procedure,_shortened": "as §1"}, "[8]": {"target": "Fuc(a1-2)Gal(b1-3)GlcNAc", "procedure,_shortened": "as §1"}, "[9]": {"target": "Fuc(a1-2)Gal(b1-3)GlcNAc(b1-2)Man(a1-3)[Fuc(a1-2)Gal(b1-3)GlcNAc(b1-2)Man(a1-6)]Man(b1-4)GlcNAc(b1-4)GlcNAc", "procedure,_shortened": "as §1"}, "[10]": {"target": "Fuc(a1-2)Gal(b1-3)GlcNAc(b1-2)Man(a1-3)[Fuc(a1-2)Gal(b1-3)GlcNAc(b1-2)Man(a1-6)]Man(b1-4)GlcNAc(b1-4)[Fuc(a1-6)]GlcNAc", "procedure,_shortened": "as §1"}, "[11]": {"target": "Fuc(a1-2)Gal(b1-3)GlcNAc(b1-3)Gal(b1-4)Glc", "procedure,_shortened": "as §1"}, "[12]": {"target": "Fuc(a1-2)Gal(b1-3)GlcNAc(b1-3)GalNAc", "procedure,_shortened": "as §1"}, "[13]": {"target": "Fuc(a1-2)Gal(b1-3)GlcNAc(b1-3)[Fuc(a1-2)Gal(b1-3)GlcNAc(b1-6)]GalNAc", "procedure,_shortened": "as §1"}, "[14]": {"target": "Fuc(a1-2)Gal(b1-3)GlcNAc(b1-3)[Gal(b1-4)GlcNAc(b1-6)]Gal(b1-4)Glc", "procedure,_shortened": "as §1"}, "[15]": {"target": "Fuc(a1-2)Gal(b1-3)GlcNAc(b1-3)[Neu5Ac(a2-6)Gal(b1-4)GlcNAc(b1-6)]Gal(b1-4)Glc", "procedure,_shortened": "as §1"}, "[16]": {"target": "Fuc(a1-2)Gal(b1-3)GlcNAc6S", "procedure,_shortened": "as §1"}, "[17]": {"target": "Fuc(a1-2)Gal(b1-3)[Fuc(a1-4)]GlcNAc", "procedure,_shortened": "as §1"}, "[18]": {"target": "Fuc(a1-2)Gal(b1-3)[Fuc(a1-4)]GlcNAc(b1-2)Man(a1-3)[Fuc(a1-2)Gal(b1-3)[Fuc(a1-4)]GlcNAc(b1-2)Man(a1-3)]Man(b1-4)GlcNAc(b1-4)GlcNAc", "procedure,_shortened": "as §1"}, "[19]": {"target": "Fuc(a1-2)Gal(b1-3)[Fuc(a1-4)]GlcNAc(b1-2)Man(a1-3)[Fuc(a1-2)Gal(b1-3)[Fuc(a1-4)]GlcNAc(b1-2)Man(a1-6)]Man(b1-4)GlcNAc(b1-4)[Fuc(a1-6)]GlcNAc(b1-4)[Fuc(a1-6)]GlcNAc", "procedure,_shortened": "as §1"}, "[20]": {"target": "Fuc(a1-2)Gal(b1-3)[Fuc(a1-4)]GlcNAc(b1-3)[Fuc(a1-3)[Gal(b1-4)]GlcNAc(b1-6)]Gal(b1-4)Glc", "procedure,_shortened": "as §1"}, "[21]": {"target": "Fuc(a1-2)Gal(b1-3)[Fuc(a1-4)]GlcNAc(b1-3)[Gal(b1-4)GlcNAc(b1-6)]Gal(b1-4)Glc", "procedure,_shortened": "as §1"}, "[22]": {"target": "Fuc(a1-2)Gal(b1-4)Glc", "procedure,_shortened": "as §1"}, "[23]": {"target": "Fuc(a1-2)Gal(b1-4)Glc6S", "procedure,_shortened": "as §1"}, "[24]": {"target": "Fuc(a1-2)Gal(b1-4)GlcNAc", "procedure,_shortened": "as §1"}, "[25]": {"target": "Fuc(a1-2)Gal(b1-4)GlcNAc(b1-2)Man", "procedure,_shortened": "as §1"}, "[26]": {"target": "Fuc(a1-2)Gal(b1-4)GlcNAc(b1-2)Man(a1-3)[Fuc(a1-2)Gal(b1-4)GlcNAc(b1-2)Man(a1-6)]Man(b1-4)GlcNAc(b1-4)GlcNAc", "procedure,_shortened": "as §1"}, "[27]": {"target": "Fuc(a1-2)Gal(b1-4)GlcNAc(b1-2)Man(a1-3)[Fuc(a1-2)Gal(b1-4)GlcNAc(b1-2)Man(a1-6)]Man(b1-4)GlcNAc(b1-4)[Fuc(a1-6)]GlcNAc", "procedure,_shortened": "as §1"}, "[28]": {"target": "Fuc(a1-2)Gal(b1-4)GlcNAc(b1-2)[Fuc(a1-2)Gal(b1-4)GlcNAc(b1-4)]Man(a1-3)[Fuc(a1-2)Gal(b1-4)GlcNAc(b1-2)Man(a1-6)]Man(b1-4)GlcNAc(b1-4)GlcNAc", "procedure,_shortened": "as §1"}, "[29]": {"target": "Fuc(a1-2)Gal(b1-4)GlcNAc(b1-3)Gal(b1-4)GlcNAc", "procedure,_shortened": "as §1"}, "[30]": {"target": "Fuc(a1-2)Gal(b1-4)GlcNAc(b1-3)Gal(b1-4)GlcNAc(b1-2)Man(a1-3)[Fuc(a1-2)Gal(b1-4)GlcNAc(b1-3)Gal(b1-4)GlcNAc(b1-2)Man(a1-6)]Man(b1-4)GlcNAc(b1-4)GlcNAc", "procedure,_shortened": "as §1"}}, "note": "Some of the results follow.", "data": [{"binder": "Cohesin-hMARCO (Homo sapiens) (protein) LDDLDAVRIKVDTVNAKPGDTVRIPVRFSGIPSKGIANCDFVYSYDPNVLEIIEIEPGDIIVDPNPDKSFDTAVYPDRKIIVFLFAEDSGTGAYAITKDGVFATIVAKVKEGAPNGLSVIKFVEVGGFANNDLVEQKTQFFDGGANVGDTTEPATPTTPVTTPTTTDDLDAASVRIVGSSNRGRAEVYYSGTWGTICDDEWQNSDAIVFCRMLGYSKGRALYKVGAGTGQIWLDNVQCRGTESTLWSCTKNSWGHHDCSHEEDAGVECSVHHHHHH", "values": [{"measurement": "glycan array binding signal (z-score)", "setting": "[1]", "value": -0.136}, {"measurement": "glycan array binding signal (z-score)", "setting": "[2]", "value": -0.068}, {"measurement": "glycan array binding signal (z-score)", "setting": "[3]", "value": -0.495}, {"measurement": "glycan array binding signal (z-score)", "setting": "[4]", "value": -0.219}, {"measurement": "glycan array binding signal (z-score)", "setting": "[5]", "value": 3.9}, {"measurement": "glycan array binding signal (z-score)", "setting": "[6]", "value": -0.247}, {"measurement": "glycan array binding signal (z-score)", "setting": "[7]", "value": 0.69}, {"measurement": "glycan array binding signal (z-score)", "setting": "[8]", "value": 0.963}, {"measurement": "glycan array binding signal (z-score)", "setting": "[9]", "value": -0.451}, {"measurement": "glycan array binding signal (z-score)", "setting": "[10]", "value": -0.557}, {"measurement": "glycan array binding signal (z-score)", "setting": "[11]", "value": -0.269}, {"measurement": "glycan array binding signal (z-score)", "setting": "[12]", "value": -0.367}, {"measurement": "glycan array binding signal (z-score)", "setting": "[13]", "value": -0.3}, {"measurement": "glycan array binding signal (z-score)", "setting": "[14]", "value": -0.498}, {"measurement": "glycan array binding signal (z-score)", "setting": "[15]", "value": -0.217}, {"measurement": "glycan array binding signal (z-score)", "setting": "[16]", "value": 0.345}, {"measurement": "glycan array binding signal (z-score)", "setting": "[17]", "value": -0.207}, {"measurement": "glycan array binding signal (z-score)", "setting": "[18]", "value": 0.121}, {"measurement": "glycan array binding signal (z-score)", "setting": "[19]", "value": -0.321}, {"measurement": "glycan array binding signal (z-score)", "setting": "[20]", "value": -0.541}, {"measurement": "glycan array binding signal (z-score)", "setting": "[21]", "value": -0.376}, {"measurement": "glycan array binding signal (z-score)", "setting": "[22]", "value": 0.78}, {"measurement": "glycan array binding signal (z-score)", "setting": "[23]", "value": -0.418}, {"measurement": "glycan array binding signal (z-score)", "setting": "[24]", "value": 0.176}, {"measurement": "glycan array binding signal (z-score)", "setting": "[25]", "value": -0.249}, {"measurement": "glycan array binding signal (z-score)", "setting": "[26]", "value": 0.288}, {"measurement": "glycan array binding signal (z-score)", "setting": "[27]", "value": -0.156}, {"measurement": "glycan array binding signal (z-score)", "setting": "[28]", "value": -0.246}, {"measurement": "glycan array binding signal (z-score)", "setting": "[29]", "value": -0.037}, {"measurement": "glycan array binding signal (z-score)", "setting": "[30]", "value": -0.417}]}]}
